Laboratory results: US20200062840A1 (KINDRED BIOSCIENCES, published 2020)
Positions count from the first letter of the chain named. These are yes or no findings as the source states them, for the method shown. Some results given as binding are weak or reduced against the parent protein; the word gives no strength. Tags and fused reporters may be left off the sequences shown. Values belong to the binder of their own block, whether it stands above or below them.

Tests used:
[1] = biological target: T1, GST_IL31.P12-E21.I19A (#79.1, #79.7); experiment: immunoblot of GST-IL31 epitope fragment fusions with alanine mutations, probed with caninized M14; anti-GST bands in all lanes of the bottom panel
T1 sequence (GST fusion protein): PSDVRKIALE

[2] = biological target: T2, GST_IL31.P12-E21.L20A (#77.3, #77.5); experiment: as above
T2 sequence (GST fusion protein): PSDVRKIIAE

[3] = biological target: T3, pGEX_GST-IL31. P12-E21*(clone 24-7); experiment: as above
T3 sequence (GST fusion protein): PSDVRKIILE

[4] = biological target: T4, GST canine IL31 fragment fusion carrying the minimal fragment (SEQ ID NO: 23) (canine); experiment: immunoblot of GST canine IL31 fragment fusions probed with chimeric M14
T4 sequence: PSDVRKIILELQPLSRG

GST_(A127-Q159) = biological target: T5, GST_(A127-Q159); experiment: immunoblot of GST-canine IL31 fusion from E. coli, membrane probed with chimeric M14
T5 sequence (GST fusion protein): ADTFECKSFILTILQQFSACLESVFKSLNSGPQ

GST_(S98-S144) = biological target: T6, GST_(S98-S144); experiment: as above
T6 sequence (GST fusion protein): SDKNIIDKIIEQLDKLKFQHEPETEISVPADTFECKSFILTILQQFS

GST-IL31(P34-K58*) = biological target: T7, GST-IL31(P34-K58*); experiment: immunoblot of GST-canine IL31 fusion from E. coli, membrane probed with chimeric M14; anti-GST band in FIG 6B lane 4
T7 sequence (GST fusion protein): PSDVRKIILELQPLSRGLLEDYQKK

GST-IL31(P34-K58*).E43A = biological target: T8, GST-IL31(P34-K58*).E43A; experiment: immunoblot of GST-canine IL31 fusion from E. coli, membrane probed with chimeric M14; anti-GST band in FIG 6B lane 5
T8 sequence (GST fusion protein): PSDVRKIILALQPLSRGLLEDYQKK

[5] = biological target: T1, GST_IL31.P12-E21.I19A (#79.1, #79.7); experiment: immunoblot of GST-IL31 epitope fragment fusions with alanine mutations, probed with hybridoma M14; anti-GST signal in all lanes of the bottom panel
[6] = biological target: T2, GST_IL31.P12-E21.L20A (#77.3, #77.5); experiment: as above
[7] = biological target: T3, pGEX_GST-IL31. P12-E21*(clone 24-7); experiment: as above

binding [1]: binds | binding [2]: binds | binding [3]: binds
B1: caninized M14 IgG-B (antibody, V domains shown)
VH: EVQLVESGPSLVKPGGSLRLTCSVTGDSITSGYWNWIRKFPGNKLEYMGYISYSGITDYNPSLKSRITISRDTSKNQYYLQLNSVTTEDTATYYCARYGNYGYAMDYWGQGTLVTVSS
VL: DIVMTQSPASLSVSLGQRATISCRASESVDTYGNSFMHWYQQKPGQSPKLLIYRASNLESGIPARFGGSGSGTDFTLTIDPVQADDVATYYCQQSYEDPWTFGGGTKLEIKR
notes: canine IgG-B heavy chain and canine light chain constant region; also called caninized M14 antibody

binding [4]: binds | binding (GST_(A127-Q159)): no binding | binding (GST_(S98-S144)): no binding | binding (GST-IL31(P34-K58*)): binds | binding (GST-IL31(P34-K58*).E43A): binds
B2: chimeric M14 (murine M14 VH and VL fused to canine IgG-B constant heavy chain and canine constant light chain) (antibody, V domains shown)
VH: B1 VH with V5Q, G15S, G16Q, S17T, R19S, T68S, S70T, L113S
VL: B1 VL with M4L, S12A, P44S, G72R, Q83E

binding [5]: binds | binding [6]: binds | binding [7]: binds
B3: mouse monoclonal antibody M14 (antibody, V domains shown)
VH: B1 VH with V5Q, G15S, G16Q, S17T, R19S, T68S, S70T, L113S
VL: DIVLTQSPASLAVSLGQRATISCRASESVDTYGNSFMHWYQQKSGQSPKLLIYRASNLESGIPARFGGSGSRTDFTLTIDPVEADDVATYYCQQSYEDPWTFGGGTKLEIK
